# According to PubChem BioAssay AID1745853 (National Center for Advancing Translational Sciences (NCATS), 2022):
# This is one part of the list. Shown are side measurements of this screen, not its main read-out; they come without a call.
# How the values were obtained:
# Test in all cases: Primary Screen for Target Class Profiling of Small Molecule Inhibitors of Methyltransferases
# [1] = biological target: Glycine N-methyltransferase (Homo sapiens) (UniProt Q14749); conditions: purified enzyme, MTase-Glo SAH luminescence; measured here: GNMT inhibition; at 40 µM; stronger effect = lower value
# Procedure, shortened: (§1)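 Each enzyme was reacted with SAM and its substrate, with compounds tested once at 40 uM; SAH formed was read by MTase-Glo luminescence.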
# [2] = biological target: Guanidinoacetate N-methyltransferase (Homo sapiens) (UniProt Q14353); conditions: purified enzyme, MTase-Glo SAH luminescence; measured here: GAMT inhibition; at 40 µM; stronger effect = lower value
# Procedure, shortened: as §1
# [3] = biological target: Histamine N-methyltransferase (Homo sapiens) (UniProt P50135); conditions: purified enzyme, MTase-Glo SAH luminescence; measured here: HNMT inhibition; at 40 µM; stronger effect = lower value
# Procedure, shortened: as §1
# [4] = biological target: Nicotinamide N-methyltransferase (Homo sapiens) (UniProt P40261); conditions: purified enzyme, MTase-Glo SAH luminescence; measured here: NNMT inhibition; at 40 µM; stronger effect = lower value
# Procedure, shortened: as §1
# [5] = biological target: Phenylethanolamine N-methyltransferase (Homo sapiens) (UniProt P11086); conditions: purified enzyme, MTase-Glo SAH luminescence; measured here: PNMT inhibition; at 40 µM; stronger effect = lower value
# Procedure, shortened: as §1
# % is set by controls: 0 for no effect and ±100 for the full control effect.
Compound,"activity change, negative = inhibition [1] [%]","activity change, negative = inhibition [2] [%]","activity change, negative = inhibition [3] [%]","activity change, negative = inhibition [4] [%]","activity change, negative = inhibition [5] [%]"
CN1CCN(c2cc(N3CCCC(CN4CCCCC4)C3)nc(N)n2)CC1 (stereo not given),-4.68,-4.7,-14.1,1.01,-5.06
CC1CC2OC3(OC2C(C)(C)O)C1C1(C)CCC24CC25CCC(O[C@@H]2OC[C@@H](O)[C@H](O)[C@H]2O)C(C)(C)C5CC=C4C1(C)C3O (stereo not given in full),5.1,14.9,11.1,1.93,8.24
C[C@H]1CO[C@@H]2Cn3cc(C(=O)NCc4ccc(F)cc4F)c(=O)c(O)c3C(=O)N12,4.38,4.14,9.89,-12.1,3.78
C=C1CC23CC1CCC2C12OC(=O)C(C)(C(O)CC1O)C2C3C(=O)O (stereo not given),-5.97,-5.95,0.756,-16.6,-15.2
CCC(C)NC(=O)c1ccc2c(=O)n(C3CC3)c3nn(CC(=O)Nc4cccc(F)c4)c(=O)n3c2c1 (stereo not given),2.4,0,4.8,1.68,5.61
COCCn1c(=O)n([C@H]2CCCN(C(=O)NCCc3ccccc3)C2)c2ncccc21,-6.38,-3.44,-7.74,-10.2,6.06
COc1ccc(CN2C(=O)c3cc(-c4ccccc4)nn3CC2(C)C(=O)NCc2ccccc2)c(OC)c1 (stereo not given),-1.77,3.59,-1.7,-3.3,-4.85
COc1cccc(NC(=O)CSc2nnc3n(CC(C)C)c(=O)c4ccc(Cl)cc4n23)c1,-6.82,0.635,3.27,-15.1,0.434
CC1(C(=O)NC2CCCCC2)Cn2c(ccc2-c2ccccc2)C(=O)N1Cc1ccco1 (stereo not given),-0.42,1.04,2.47,-13,-0.999
O=c1[nH]c2ccc(S(=O)(=O)N3CCN(Cc4ccc5c(c4)OCO5)CC3)cc2[nH]1,7.36,0,10,2.35,-7.79
COc1cccc(NC(=O)Cn2c(=O)oc3cc(S(=O)(=O)N4CC(C)CC(C)C4)ccc32)c1 (stereo not given),7.18,0.566,4.76,3.55,-45.1
CC(C)Oc1ccc(CN2C(=O)c3ccc(-c4ccco4)n3CC2(C)C(=O)NC2CCCCC2)cc1 (stereo not given),-4.45,1.71,5.01,-6.34,-0.933
CC(=O)[C@@]1(O)CC[C@H]2[C@@H]3CCC4=CC(=O)CC[C@]4(C)[C@H]3CC[C@@]21C,13.9,16.5,14.4,-4.7,1.15
O=C(c1c(F)ccc(NS(=O)(=O)N2CC[C@@H](F)C2)c1F)c1c[nH]c2ncc(-c3cnc(C4CC4)nc3)cc12,-16.2,1.86,-13.5,-26.5,-18.7
C=C1CC/C=C(/CO)C(=O)C[C@@H]2[C@@H]1CC2(C)C,5.03,5.79,10,-9.13,6.4
COCCCN1C(=O)c2cc3oc(C)cc3n2CC1(C)C(=O)NC1CCCCCCC1 (stereo not given),-8.62,1.03,-0.782,-7.46,-2.52
CN1CCC(NC(=O)CC2(Cc3ccccc3)C(=O)N(C)c3ccccc32)CC1 (stereo not given),-3.29,-7.37,-2.38,-9.7,-4.77
CC(C)Cn1c(=O)c2ccc(Cl)cc2n2c(SCC(=O)Nc3ccccc3F)nnc12,-9.72,5.08,8.3,-14.1,-3.93
CCCNC(=O)CNC(=O)C1(C)Cn2c(cc3ccccc32)C(=O)N1C (stereo not given),0.708,0.771,5.88,6.72,5.66
CC(C)OCCCn1c(=O)c2ccccc2n2c(SCC(=O)Nc3ccc4c(c3)OCO4)nnc12,-7.92,-2.38,-0.829,-8.92,-5.08

Compound,"activity change, negative = inhibition [1] [%]","activity change, negative = inhibition [2] [%]","activity change, negative = inhibition [3] [%]","activity change, negative = inhibition [4] [%]","activity change, negative = inhibition [5] [%]"
CCN(CC)C(=O)c1ccc(O)c(OC)c1,-4.66,7.46,0.004,-6.97,7.77
CCOC(=O)COc1cc2oc(=O)cc(-c3ccccc3)c2cc1Cl,-2.71,0,5.12,2.36,-1.83
CCCCN1C(=O)c2cc(C(=O)NCc3ccc4c(c3)OCO4)nn2CC1(C)C(=O)NC1CCCC1 (stereo not given),3.26,0.152,2.86,0.488,2.48
CCCC1c2ccc(C)n2CCN1C(=O)Nc1cccc(OC)c1 (stereo not given),0.74,3.43,-0.751,3.08,3.35
CCOC(=O)c1cc2n(n1)CC(C)(C(=O)NC1CCCCCC1)N(c1ccc(C)cc1)C2=O (stereo not given),4.32,0.909,1.92,1.58,4.8
CCCn1c(=O)c2ccc(C(=O)NC(C)CC)cc2n2c(SCC(=O)Nc3ccc(C)c(C)c3)nnc12 (stereo not given),-1.22,2.5,0.281,0.878,-0.575
Cc1cccc(-c2nnn3c2nc(N2CCCCC2)c2ccccc23)c1,-1.58,4.83,4.12,-1.75,-13.4
O=C(C1OC1/C=C/c1ccc2c(c1)OCO2)N1CCCCC1 (stereo not given),2.5,7.03,1.86,-7.14,4.51
CCCn1c(=O)c2ccc(Cl)cc2n2c(=O)n(CC(=O)c3ccc(Br)cc3)nc12,3.99,0,11.3,5.08,3.73
O=C(CCn1ccc2cc(S(=O)(=O)N3CCCCC3)ccc21)NCCc1ccccc1Cl,-3.06,-3.77,4.03,-7.61,-5.14
CSCCCN1CC[C@@H](NC(=O)c2ccncc2)[C@H](O)C1,-6.62,-9.13,-4.93,-14.1,1.78
c1cncc(-c2nnc3n2CCN(Cc2ccsc2)C3)c1,-2.81,-4.18,0.854,-9.91,-2.5
COc1ccc(-c2nnc3n(CCCOC(C)C)c(=O)c4ccccc4n23)cc1OC,-3.44,3.67,2.42,-0.155,0.036
C=CCn1c(=O)c2ccc(C(=O)NC(C)CC)cc2n2c(=O)n(CC(=O)Nc3ccc(F)cc3)nc12 (stereo not given),3.83,3.21,1.01,0.346,3.28
O=C(C1CC1)N1CCC(Cc2noc(-c3ccncc3)n2)C1 (stereo not given),-6.82,-6.73,-4.97,-11.7,-18.6
Cc1cc2ncc(C(=O)NCc3ccccc3Cl)cn2n1,-3.01,0.946,-4.5,-4.05,-0.757
COc1ccc(C(=O)N2CC[C@H](c3nnc(-c4ccccc4)o3)C2)cc1,-5.55,5.27,0.253,-8.8,-4.83
NC1(C(=O)O)CC1,-11.5,-0.256,-5.47,-8.34,1.82
CCCn1c(=O)c2ccc(C(=O)NCC(C)C)cc2n2c(=O)n(Cc3ccccc3C)nc12,-0.854,0,5.67,1.99,3.98
